A value given as a limit tells only on which side of the number the result lay.

The target in one test is human CB2 receptor (hCB2) (Homo sapiens, UniProt P34972). Description: cell-based. Type of test: cell-based.
human CB2 receptor (hCB2), sequence (P34972 whole entry): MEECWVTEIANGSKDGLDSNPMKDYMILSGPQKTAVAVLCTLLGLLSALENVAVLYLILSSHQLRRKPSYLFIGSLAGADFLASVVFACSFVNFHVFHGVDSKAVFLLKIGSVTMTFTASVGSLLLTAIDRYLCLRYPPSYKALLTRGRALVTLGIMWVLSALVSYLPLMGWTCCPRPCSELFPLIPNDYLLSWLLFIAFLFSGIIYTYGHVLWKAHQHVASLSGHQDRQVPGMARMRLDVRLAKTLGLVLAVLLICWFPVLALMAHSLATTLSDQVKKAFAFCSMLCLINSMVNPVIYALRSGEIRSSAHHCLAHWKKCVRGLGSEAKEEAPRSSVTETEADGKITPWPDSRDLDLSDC
Conditions: not given
As to `Cc1nnc(C)n1C1CCN(C(=O)c2nc(-c3ccc(Cl)cc3F)n3c2CN(C)CC3)CC1` [Compound 223, (3-(4-chloro-2-fluorophenyl)-7-methyl-5,6,7,8-tetrahydroimidazo[1,5-a]pyrazin-1-yl)(4-(3,5-dimethyl-4H-1,2,4-triazol-4-yl)piperidin-1-yl)methanone], the EC50 (in general, the concentration needed to bring the measured effect to its halfway point) was greater than 10000 nM. Still for that read-out and setting: under `CNC(=O)[C@@H](NC(=O)c1nc(-c2ccsc2)n2c1CN(CC1CC1)CC2)C(C)(C)C` [Compound 74, (S)-7-(cyclopropylmethyl)-N-(3,3-dimethyl-1-(methylamino)-1-oxobutan-2-yl)-3-(thiophen-3-yl)-5,6,7,8-tetrahydroimidazo[1,5-a]pyrazine-1-carboxamide] stands greater than 10000 nM. The same measure, in the same setting: under `CNC(=O)[C@@H](NC(=O)c1nc(-c2ccc(C3CC(=O)NN3)cc2)n2c1CN(C)CCC2)C(C)(C)C` (stereo partly drawn) [Compound 428, N-((S)-3,3-dimethyl-1-(methylamino)-1-oxobutan-2-yl)-8-methyl-3-(4-(5-oxopyrazolidin-3-yl)phenyl)-6,7,8,9-tetrahydro-5H-imidazo[1,5-a][1,4]diazepine-1-carboxamide] stands greater than 10000 nM; under `CNC(=O)[C@@H](NC(=O)c1nc(-c2cccc(N(C)C)c2)n2c1CN(C)CCC2)C(C)(C)C` [Compound 382, (S)-N-(3,3-dimethyl-1-(methylamino)-1-oxobutan-2-yl)-3-(3-(dimethylamino)phenyl)-8-methyl-6,7,8,9-tetrahydro-5H-imidazo[1,5-a][1,4]diazepine-1-carboxamide], greater than 10000 nM.

In the case of `Cc1cnc(CNC(=O)c2nc(-c3ccccc3)n3c2CN(C)CC3)cn1` [Compound 237, 7-methyl-N-((5-methylpyrazin-2-yl)methyl)-3-phenyl-5,6,7,8-tetrahydroimidazo[1,5-a]pyrazine-1-carboxamide], the EC50 is greater than 10000 nM.

The compound `C=C(c1nc(C(=O)N[C@H](C(=O)NC)C(C)(C)C)c2n1CCCN(C)C2)C(F)(F)F` [Compound 453, (S)-N-(3,3-dimethyl-1-(methylamino)-1-oxobutan-2-yl)-8-methyl-3-(3,3,3-trifluoroprop-1-en-2-yl)-6,7,8,9-tetrahydro-5H-imidazo[1,5-a][1,4]diazepine-1-carboxamide] had an EC50 greater than 10000 nM. Consider `CNC(=O)[C@@H](NC(=O)c1nc(-c2ccc(C(F)(F)F)cc2)n2c1CNCC2)C(C)(C)C` [Compound 5, (S)-N-(3,3-dimethyl-1-(methylamino)-1-oxobutan-2-yl)-3-(4-(trifluoromethyl)phenyl)-5,6,7,8-tetrahydroimidazo[1,5-a]pyrazine-1-carboxamide], for which the EC50 was greater than 10000 nM.

The test is the same for the next values; noted with them: agonist or inverse agonist at hCB2.
Take `CNC(=O)[C@@H](NC(=O)c1nc(-c2ccccc2)n2c1CN(C(=O)OC(C)(C)C)CC2)C(C)(C)C` [Compound 1, (S)-tert-butyl 1-(3,3-dimethyl-1-(methylamino)-1-oxobutan-2-ylcarbamoyl)-3-phenyl-5,6-dihydroimidazo[1,5-a]pyrazine-7(8H)-carboxylate]: the “+/− HCB2” value is “−”. Still for that read-out and setting: to `CNC(=O)[C@@H](NC(=O)c1nc(C(C)C(C)C)n2c1CN(C)CCC2)C(C)(C)C` (stereo partly drawn) [Compound 507, N-((S)-3,3-dimethyl-1-(methylamino)-1-oxobutan-2-yl)-8-methyl-3-(3-methylbutan-2-yl)-6,7,8,9-tetrahydro-5H-imidazo[1,5-a][1,4]diazepine-1-carboxamide] belongs “+”; to `CNC(=O)[C@@H](NC(=O)c1nc(-c2cccc(F)c2)n2c1CN(C)CC2)C(C)(C)C` [Compound 244, (S)-N-(3,3-dimethyl-1-(methylamino)-1-oxobutan-2-yl)-3-(3-fluorophenyl)-7-methyl-5,6,7,8-tetrahydroimidazo[1,5-a]pyrazine-1-carboxamide], “+”. On the same count and under the same terms, under `Cc1nnc([C@@H](NC(=O)c2nc(-c3ccccc3)n3c2CNCC3)C(C)(C)C)o1` [Compound 200, (S)-N-(2,2-dimethyl-1-(5-methyl-1,3,4-oxadiazol-2-yl)propyl)-3-phenyl-5,6,7,8-tetrahydroimidazo[1,5-a]pyrazine-1-carboxamide] stands “+”; under `CC(C)C[C@H](NC(=O)c1nc(-c2cc(F)ccc2F)n2c1CN(C)CCC2)C(N)=O` [Compound 567, (S)-N-(1-amino-4-methyl-1-oxopentan-2-yl)-3-(2,5-difluorophenyl)-8-methyl-6,7,8,9-tetrahydro-5H-imidazo[1,5-a][1,4]diazepine-1-carboxamide], “+”; under `CCCCCCc1nc(C(=O)N[C@H](C(=O)NC)C(C)(C)C)c2n1CCCN(C)C2` [Compound 491, (S)-N-(3,3-dimethyl-1-(methylamino)-1-oxobutan-2-yl)-3-hexyl-8-methyl-6,7,8,9-tetrahydro-5H-imidazo[1,5-a][1,4]diazepine-1-carboxamide], “+”. Still for that read-out and setting: under `CNC(=O)[C@@H](NC(=O)c1nc(-c2ccc(F)cc2Cl)n2c1CN(C)CCC2)C(C)(C)C` [Compound 337, (S)-3-(2-chloro-4-fluorophenyl)-N-(3,3-dimethyl-1-(methylamino)-1-oxobutan-2-yl)-8-methyl-6,7,8,9-tetrahydro-5H-imidazo[1,5-a][1,4]diazepine-1-carboxamide] stands “+”; under `CNC(=O)[C@@H](NC(=O)c1nc(-c2cc(OC)cc(C(F)(F)F)c2)n2c1CN(C)CCC2)C(C)(C)C` [Compound 418, (S)-N-(3,3-dimethyl-1-(methylamino)-1-oxobutan-2-yl)-3-(3-methoxy-5-(trifluoromethyl)phenyl)-8-methyl-6,7,8,9-tetrahydro-5H-imidazo[1,5-a][1,4]diazepine-1-carboxamide], “+”. `Cc1noc([C@@H](NC(=O)c2nc(-c3ccccc3)n3c2CN(C2CC2)CC3)C(C)(C)C)n1` [Compound 198, (S)-7-cyclopropyl-N-(2,2-dimethyl-1-(3-methyl-1,2,4-oxadiazol-5-yl)propyl)-3-phenyl--5,6,7,8-tetrahydroimidazo[1,5-a]pyrazine-1-carboxamide]: the “+/− HCB2” value is on record as “+”.

In the case of `CNC(=O)[C@H](CC(C)C)NC(=O)c1nc(-c2ccccc2)n2c1CN(C)CC2` [Compound 275, (S)-7-methyl-N-(4-methyl-1-(methylamino)-1-oxopentan-2-yl)-3-phenyl-5,6,7,8-tetrahydroimidazo[1,5-a]pyrazine-1-carboxamide], the “+/− HCB2” value is reported as “+”. Same read-out and setting: to `CNC(=O)[C@@H](NC(=O)c1nc(-c2ccc(C)cc2Cl)n2c1CN(C)CCC2)C(C)(C)C` [Compound 367, (S)-3-(2-chloro-4-methylphenyl)-N-(3,3-dimethyl-1-(methylamino)-1-oxobutan-2-yl)-8-methyl-6,7,8,9-tetrahydro-5H-imidazo[1,5-a][1,4]diazepine-1-carboxamide] belongs “+”. `CC(C)(C)OC(=O)N1CCn2c(-c3ccccc3)nc(C(=O)Nc3ccccc3)c2C1` [Compound 32, tert-butyl 3-phenyl-1-(phenylcarbamoyl)-5,6-dihydroimidazo[1,5-a]pyrazine-7(8H)-carboxylate]: the “+/− HCB2” value was “−”. For `CNC(=O)[C@@H](NC(=O)c1nc(-c2cc(Cl)ccc2F)n2c1CN(C)CCC2)C(C)(C)C` [Compound 361, (S)-3-(5-chloro-2-fluorophenyl)-N-(3,3-dimethyl-1-(methylamino)-1-oxobutan-2-yl)-8-methyl-6,7,8,9-tetrahydro-5H-imidazo[1,5-a][1,4]diazepine-1-carboxamide], the “+/− HCB2” value is recorded as “+”.

For `CC(C)CN1CCn2c(-c3ccccc3)nc(C(=O)N[C@@H](C)C(C)(C)C)c2C1` [Compound 53, (S)-N-(3,3-dimethylbutan-2-yl)-7-isobutyl-3-phenyl-5,6,7,8-tetrahydroimidazo[1,5-a]pyrazine-1-carboxamide], the “+/− HCB2” value is “+”. As to `COC(=O)[C@@H](NC(=O)c1nc(-c2ccccc2)n2c1CN(C)CCC2)C(C)(C)C` [Compound 467, (S)-methyl 3,3-dimethyl-2-(8-methyl-3-phenyl-6,7,8,9-tetrahydro-5H-imidazo[1,5-a][1,4]diazepine-1-carboxamido)butanoate], the “+/− HCB2” value is reported as “+”. On the same count and under the same terms, to `CNC(=O)[C@@H](NC(=O)c1nc(C(C)C(F)(F)F)n2c1CN(C)CCC2)C(C)(C)C` (stereo partly drawn) [Compound 505, N-((S)-3,3-dimethyl-1-(methylamino)-1-oxobutan-2-yl)-8-methyl-3-(1,1,1-trifluoropropan-2-yl)-6,7,8,9-tetrahydro-5H-imidazo[1,5-a][1,4]diazepine-1-carboxamide] belongs “+”. On the same count and under the same terms, to `CN1CCCn2c(-c3ccc(Cl)cc3F)nc(C(=O)N[C@H](C(N)=O)C(C)(C)C)c2C1` [Compound 573, (S)-N-(1-amino-3,3-dimethyl-1-oxobutan-2-yl)-3-(4-chloro-2-fluorophenyl)-8-methyl-6,7,8,9-tetrahydro-5H-imidazo[1,5-a][1,4]diazepine-1-carboxamide] belongs “+”; to `CC(C)C[C@H](NC(=O)c1nc(-c2cc(F)c(F)cc2F)n2c1CN(C)CCC2)C(N)=O` [Compound 572, (S)-N-(1-amino-4-methyl-1-oxopentan-2-yl)-8-methyl-3-(2,4,5-trifluorophenyl)-6,7,8,9-tetrahydro-5H-imidazo[1,5-a][1,4]diazepine-1-carboxamide], “+”.

The same test, now with this note: groups >100 nM-10 μM and >10 μM; cAMP, CHO-K1 hCB2; read-out: EC50 HCB2.
Turning to `CN1CCn2c(-c3ccc(Cl)cc3F)nc(C(=O)N3CCC(n4c(=O)[nH]c5ccccc54)CC3)c2C1` [Compound 215, 1-(1-(3-(4-chloro-2-fluorophenyl)-7-methyl-5,6,7,8-tetrahydroimidazo[1,5-a]pyrazine-1-carbonyl)piperidin-4-yl)-1H-benzo[d]imidazol-2(3H)-one], the EC50 was greater than 10000 nM. Same read-out and setting: under `O=C(NC1CCCCC1)c1nc(-c2ccccc2)n2c1CN(CCO)CC2` [Compound 166, N-cyclohexyl-7-(2-hydroxyethyl)-3-phenyl-5,6,7,8-tetrahydroimidazo[1,5-a]pyrazine-1-carboxamide] stands greater than 10000 nM; under `CN1CCn2c(-c3ccccc3)nc(C(=O)NC(C)(C)CO)c2C1` [Compound 230, N-(1-hydroxy-2-methylpropan-2-yl)-7-methyl-3-phenyl-5,6,7,8-tetrahydroimidazo[1,5-a]pyrazine-1-carboxamide], greater than 10000 nM.

The values are drawn from patent US7517874B2 (priority 2007, dated 2009).
